T1: Myostatin (UniProt O14793 267-375)
T1 construct: bought protein; also called GDF-8; MST
T1 sequence (looked up): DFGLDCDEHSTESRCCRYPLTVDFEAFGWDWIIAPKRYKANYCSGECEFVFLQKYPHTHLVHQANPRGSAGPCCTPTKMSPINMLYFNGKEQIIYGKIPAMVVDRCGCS

T2: Activin A (UniProt P08476 311-426)
T2 construct: bought protein
T2 sequence (looked up): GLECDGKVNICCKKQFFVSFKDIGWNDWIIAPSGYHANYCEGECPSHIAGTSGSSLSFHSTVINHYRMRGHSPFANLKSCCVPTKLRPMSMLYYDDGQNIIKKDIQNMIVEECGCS

T3: BMP-9 (UniProt Q9UK05 320-429)
T3 construct: bought protein; also called bone morphogenic protein-9
T3 sequence (looked up): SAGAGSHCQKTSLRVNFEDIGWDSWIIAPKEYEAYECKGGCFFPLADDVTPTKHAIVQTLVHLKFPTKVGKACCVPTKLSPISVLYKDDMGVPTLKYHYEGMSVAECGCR

T4: BMP-10 (UniProt O95393 317-424)
T4 construct: bought protein; also called bone morphogenic protein-10
T4 sequence (looked up): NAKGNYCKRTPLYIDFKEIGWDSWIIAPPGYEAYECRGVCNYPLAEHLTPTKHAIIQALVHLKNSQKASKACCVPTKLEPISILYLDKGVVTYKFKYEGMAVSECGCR

B1: FS315WT-hFc (Fc fusion)
chain: GNCWLRQAKNGRCQVLYKTELSKEECCSTGRLSTSWTEEDVNDNTLFKWMIFNGGAPNCIPCKETCENVDCGPGKKCRMNKKNKPRCVCAPDCSNITWKGPVCGLDGKTYRNECALLKARCKEQPELEVQYQGRCKKTCRDVFCPGSSTCVVDQTNNAYCVTCNRICPEPASSEQYLCGNDGVTYSSACHLRKATCLLGRSIGLAYEGKCIKAKSCEDIQCTGGKKCLWDFKVGRGRCSLCDELCPDSKSDEPVCASDNATYASECAMKEAACSSGVLLEVKHSGSCNSISEDTEEEEEDEDQDYSFPISSILEW[here human IgG1 Fc without letters]
notes: wild-type FS315 fused to human Fc; comparator protein; also called FS315wt-hFc (comparator protein)
B2: FS315K84E-hFcLALA (Fc fusion)
chain: GNCWLRQAKNGRCQVLYKTELSKEECCSTGRLSTSWTEEDVNDNTLFKWMIFNGGAPNCIPCKETCENVDCGPGKKCRMNKKNEPRCVCAPDCSNITWKGPVCGLDGKTYRNECALLKARCKEQPELEVQYQGRCKKTCRDVFCPGSSTCVVDQTNNAYCVTCNRICPEPASSEQYLCGNDGVTYSSACHLRKATCLLGRSIGLAYEGKCIKAKSCEDIQCTGGKKCLWDFKVGRGRCSLCDELCPDSKSDEPVCASDNATYASECAMKEAACSSGVLLEVKHSGSCNSISEDTEEEEEDEDQDYSFPISSILEW[here human IgG1 Fc with changes without letters]
notes: printed only as 'K84E' among the FS315-hFc variants
B3: FS315K(76,81,82)D-hFcLALA (Fc fusion)
chain: GNCWLRQAKNGRCQVLYKTELSKEECCSTGRLSTSWTEEDVNDNTLFKWMIFNGGAPNCIPCKETCENVDCGPGKDCRMNDDNKPRCVCAPDCSNITWKGPVCGLDGKTYRNECALLKARCKEQPELEVQYQGRCKKTCRDVFCPGSSTCVVDQTNNAYCVTCNRICPEPASSEQYLCGNDGVTYSSACHLRKATCLLGRSIGLAYEGKCIKAKSCEDIQCTGGKKCLWDFKVGRGRCSLCDELCPDSKSDEPVCASDNATYASECAMKEAACSSGVLLEVKHSGSCNSISEDTEEEEEDEDQDYSFPISSILEW[here human IgG1 Fc with changes without letters]
B4: FS315K(76,84)E-hFcLALA (Fc fusion)
chain: GNCWLRQAKNGRCQVLYKTELSKEECCSTGRLSTSWTEEDVNDNTLFKWMIFNGGAPNCIPCKETCENVDCGPGKECRMNKKNEPRCVCAPDCSNITWKGPVCGLDGKTYRNECALLKARCKEQPELEVQYQGRCKKTCRDVFCPGSSTCVVDQTNNAYCVTCNRICPEPASSEQYLCGNDGVTYSSACHLRKATCLLGRSIGLAYEGKCIKAKSCEDIQCTGGKKCLWDFKVGRGRCSLCDELCPDSKSDEPVCASDNATYASECAMKEAACSSGVLLEVKHSGSCNSISEDTEEEEEDEDQDYSFPISSILEW[here human IgG1 Fc with changes without letters]
notes: printed only as 'K(76,84)E' among the FS315-hFc variants
B5: FS315K(81,82)E-hFcLALA (Fc fusion)
chain: GNCWLRQAKNGRCQVLYKTELSKEECCSTGRLSTSWTEEDVNDNTLFKWMIFNGGAPNCIPCKETCENVDCGPGKKCRMNEENKPRCVCAPDCSNITWKGPVCGLDGKTYRNECALLKARCKEQPELEVQYQGRCKKTCRDVFCPGSSTCVVDQTNNAYCVTCNRICPEPASSEQYLCGNDGVTYSSACHLRKATCLLGRSIGLAYEGKCIKAKSCEDIQCTGGKKCLWDFKVGRGRCSLCDELCPDSKSDEPVCASDNATYASECAMKEAACSSGVLLEVKHSGSCNSISEDTEEEEEDEDQDYSFPISSILEW[here human IgG1 Fc with changes without letters]
B6: FS315K(82,84)E-hFcLALA (Fc fusion)
chain: GNCWLRQAKNGRCQVLYKTELSKEECCSTGRLSTSWTEEDVNDNTLFKWMIFNGGAPNCIPCKETCENVDCGPGKKCRMNKENEPRCVCAPDCSNITWKGPVCGLDGKTYRNECALLKARCKEQPELEVQYQGRCKKTCRDVFCPGSSTCVVDQTNNAYCVTCNRICPEPASSEQYLCGNDGVTYSSACHLRKATCLLGRSIGLAYEGKCIKAKSCEDIQCTGGKKCLWDFKVGRGRCSLCDELCPDSKSDEPVCASDNATYASECAMKEAACSSGVLLEVKHSGSCNSISEDTEEEEEDEDQDYSFPISSILEW[here human IgG1 Fc with changes without letters]
B7: FS315K(76,81,82)E-hFcLALA (Fc fusion)
chain: GNCWLRQAKNGRCQVLYKTELSKEECCSTGRLSTSWTEEDVNDNTLFKWMIFNGGAPNCIPCKETCENVDCGPGKECRMNEENKPRCVCAPDCSNITWKGPVCGLDGKTYRNECALLKARCKEQPELEVQYQGRCKKTCRDVFCPGSSTCVVDQTNNAYCVTCNRICPEPASSEQYLCGNDGVTYSSACHLRKATCLLGRSIGLAYEGKCIKAKSCEDIQCTGGKKCLWDFKVGRGRCSLCDELCPDSKSDEPVCASDNATYASECAMKEAACSSGVLLEVKHSGSCNSISEDTEEEEEDEDQDYSFPISSILEW[here human IgG1 Fc with changes without letters]
notes: also called EEE-FS-hFc; FS-EEE-hFc
B8: FS315(del75-86)-hFcLALA (Fc fusion)
chain: GNCWLRQAKNGRCQVLYKTELSKEECCSTGRLSTSWTEEDVNDNTLFKWMIFNGGAPNCIPCKETCENVDCGPGCVCAPDCSNITWKGPVCGLDGKTYRNECALLKARCKEQPELEVQYQGRCKKTCRDVFCPGSSTCVVDQTNNAYCVTCNRICPEPASSEQYLCGNDGVTYSSACHLRKATCLLGRSIGLAYEGKCIKAKSCEDIQCTGGKKCLWDFKVGRGRCSLCDELCPDSKSDEPVCASDNATYASECAMKEAACSSGVLLEVKHSGSCNSISEDTEEEEEDEDQDYSFPISSILEW[here human IgG1 Fc with changes without letters]
notes: also called HBS deletion variant
B9: FS315K(81,82)D-hFcLALA (Fc fusion)
chain: GNCWLRQAKNGRCQVLYKTELSKEECCSTGRLSTSWTEEDVNDNTLFKWMIFNGGAPNCIPCKETCENVDCGPGKKCRMNDDNKPRCVCAPDCSNITWKGPVCGLDGKTYRNECALLKARCKEQPELEVQYQGRCKKTCRDVFCPGSSTCVVDQTNNAYCVTCNRICPEPASSEQYLCGNDGVTYSSACHLRKATCLLGRSIGLAYEGKCIKAKSCEDIQCTGGKKCLWDFKVGRGRCSLCDELCPDSKSDEPVCASDNATYASECAMKEAACSSGVLLEVKHSGSCNSISEDTEEEEEDEDQDYSFPISSILEW[here human IgG1 Fc with changes without letters]

Columns and labels:
[1] = molecular target: T1, Myostatin; test: SPR (BIAcore), anti-human Fc capture, myostatin as analyte
[2] = molecular target: T2, Activin A; test: SPR (BIAcore), anti-human Fc capture, activin A as analyte
[3] = molecular target: T1, Myostatin; test: cell-based or functional assay
[4] = molecular target: T2, Activin A; test: cell-based or functional assay
[5] = molecular target: T1, Myostatin; test: SPR
[6] = molecular target: T3, BMP-9; test: SPR (BIAcore), anti-human Fc capture, BMP-9 as analyte
[7] = molecular target: T4, BMP-10; test: SPR (BIAcore), anti-human Fc capture, BMP-10 as analyte
[8] = molecular target: T1, Myostatin; test: cell-based or functional assay; remark: listed apart in the source
[9] = molecular target: T2, Activin A; test: cell-based or functional assay; remark: listed apart in the source
[10] = molecular target: T1, Myostatin; test: SPR; remark: listed apart in the source

| Binder | Kd [1] [nM] | Kd [2] [nM] | Myostatin IC50, cell-based assay for SMAD pathway (A204 luciferase reporter) [3] [nM] | Activin A IC50, cell-based assay for SMAD pathway (A204 luciferase reporter) [4] [nM] | Kd [5] [nM] | binding result [6] | binding result [7] | other results |
| --- | --- | --- | --- | --- | --- | --- | --- | --- |
| B1 | 0.006 to 0.01 | 0.001 to 0.002 | 0.4 | 0.7 | – | – | – | – |
| B2 | – | – | – | – | 0.0099 | – | – | – |
| B3 | – | 0.00076 | – | 1.1 | – | no binding (tested: 25-0.190 nM) | no binding (tested: 25-0.190 nM) | – |
| B4 | – | – | – | – | 0.009 | – | – | – |
| B5 | 0.00987 | – | 0.6 | 1 | 0.0099 | – | no binding (tested: 25-0.190 nM) | – |
| B6 | – | – | 0.7 | 1.1 | 0.009 | – | – | – |
| B7 | – | 0.001 to 0.002 | – | 0.7 | – | no binding (tested: 25-0.190 nM) | no binding (tested: 25-0.190 nM) | – |
| B8 | 0.0571 | – | – | – | 0.0571 | – | no binding (tested: 25-0.190 nM) | myostatin inhibition, SMAD2/3 luciferase reporter assay in A204 cells, fold reduction compared to wild type [8]: ~20 fold; activin inhibition, SMAD2/3 luciferase reporter assay in A204 cells, fold reduction compared to wild type [9]: ~5 fold; fold reduction in binding affinity compared to wild type [10]: 3 fold |
| B9 | – | 0.00047 | – | – | – | no binding (tested: 25-0.190 nM) | no binding (tested: 25-0.190 nM) | – |
